From patent US20250289788A1, “HALOALKYL SULFONANILIDE COMPOUND AND HERBICIDE CONTAINING THE SAME” (SDS BIOTECH K.K., priority 2022, published 2025)
Some entries share one result that the patent states for a list of compounds. For at least one compound, name, drawing or mass did not settle the structure.

Experiments:
Experiment in all cases: Test Example 1: herbicidal effect test using paddy field flooding treatment
Format in all cases: in vivo
Ammannia multiflora (AM) = details: water surface application, 21 days after treatment
[1] = system: Monochoria vaginalis (MV); details: water surface application, 21 days after treatment
[2] = system: Schoenoplectiella juncoides (SJ); details: water surface application, 21 days after treatment
[3] = system: Echinochloa crus-galli var. oryzicola (EC); details: dose 500 g a.i./ha, water surface application, 21 days after treatment

SMILES: O=C1c2c(F)ccc(F)c2CCN1Cc1cccc(Cl)c1NS(=O)(=O)C(F)(F)F [Compound 4-13]
- herbicidal efficacy (degree (%) of suppression of growth of terrestrial part) (Ammannia multiflora (AM); dose 31 g a.i./ha): ≥ 80%
- herbicidal efficacy (degree (%) of suppression of growth of terrestrial part) ([1]; dose 250 g a.i./ha): ≥ 80%
- herbicidal efficacy (degree (%) of suppression of growth of terrestrial part) ([2]; dose 250 g a.i./ha): ≥ 80%

SMILES: O=C1c2c(Cl)cccc2CN1Cc1ccccc1NS(=O)(=O)C(F)(F)F [Compound 2-3, N-[2-(N-trifluoromethanesulfonyl)aminobenzyl]-7-chloro-1,3-dihydroisoindol-1-one]
- herbicidal efficacy (degree (%) of suppression of growth of terrestrial part) (Ammannia multiflora (AM); dose 63 g a.i./ha): ≥ 80%
- herbicidal efficacy (degree (%) of suppression of growth of terrestrial part) ([1]; dose 250 g a.i./ha): ≥ 80%
- herbicidal efficacy (degree (%) of suppression of growth of terrestrial part) ([2]; dose 125 g a.i./ha): ≥ 80%

SMILES: CC(C)(C)c1ccc2c(c1)C(=O)N(Cc1ccccc1NS(=O)(=O)C(F)(F)F)CC2 [Compound 3-25]
- herbicidal efficacy (degree (%) of suppression of growth of terrestrial part) (Ammannia multiflora (AM); dose 16 g a.i./ha): ≥ 80%
- herbicidal efficacy (degree (%) of suppression of growth of terrestrial part) ([1]; dose 250 g a.i./ha): ≥ 80%
- herbicidal efficacy (degree (%) of suppression of growth of terrestrial part) ([2]; dose 250 g a.i./ha): ≥ 80%

SMILES: O=S(=O)(Nc1ccccc1CN1CCc2ccccc2C1=S)C(F)(F)F [Compound 7-1]
- herbicidal efficacy (degree (%) of suppression of growth of terrestrial part) (Ammannia multiflora (AM); dose 63 g a.i./ha): ≥ 80%
- herbicidal efficacy (degree (%) of suppression of growth of terrestrial part) ([1]; dose 63 g a.i./ha): ≥ 80%
- herbicidal efficacy (degree (%) of suppression of growth of terrestrial part) ([2]; dose 63 g a.i./ha): ≥ 80%

SMILES: O=C1c2c(Cl)cccc2CCN1Cc1cc(Cl)ccc1NS(=O)(=O)C(F)(F)F [Compound 4-10]
- herbicidal efficacy (degree (%) of suppression of growth of terrestrial part) (Ammannia multiflora (AM); dose 63 g a.i./ha): ≥ 80%
- herbicidal efficacy (degree (%) of suppression of growth of terrestrial part) ([1]; dose 500 g a.i./ha): ≥ 80%
- herbicidal efficacy (degree (%) of suppression of growth of terrestrial part) ([2]; dose 250 g a.i./ha): ≥ 80%

SMILES: O=C1c2ccc(Br)cc2CN1Cc1ccccc1NS(=O)(=O)C(F)(F)F [Compound 2-40]
- herbicidal efficacy (degree (%) of suppression of growth of terrestrial part) (Ammannia multiflora (AM); dose 250 g a.i./ha): ≥ 80%
- herbicidal efficacy (degree (%) of suppression of growth of terrestrial part) ([1]; dose 250 g a.i./ha): ≥ 80%
- herbicidal efficacy (degree (%) of suppression of growth of terrestrial part) ([2]; dose 250 g a.i./ha): ≥ 80%

SMILES: N#Cc1cccc2c1C(=O)N(Cc1ccccc1NS(=O)(=O)C(F)(F)F)C2 [Compound 2-7]
- herbicidal efficacy (degree (%) of suppression of growth of terrestrial part) (Ammannia multiflora (AM); dose 500 g a.i./ha): ≥ 80%
- herbicidal efficacy (degree (%) of suppression of growth of terrestrial part) ([1]; dose 500 g a.i./ha): ≥ 80%
- herbicidal efficacy (degree (%) of suppression of growth of terrestrial part) ([2]; dose 500 g a.i./ha): ≥ 80%

SMILES: O=C1c2c(F)ccc(F)c2CCN1Cc1ccccc1N(C(=O)c1cccs1)S(=O)(=O)C(F)(F)F [Compound 3-122]
- herbicidal efficacy (degree (%) of suppression of growth of terrestrial part) (Ammannia multiflora (AM); dose 63 g a.i./ha): ≥ 80%
- herbicidal efficacy (degree (%) of suppression of growth of terrestrial part) ([1]; dose 500 g a.i./ha): ≥ 80%
- herbicidal efficacy (degree (%) of suppression of growth of terrestrial part) ([2]; dose 500 g a.i./ha): ≥ 80%

SMILES: COCCC(=O)N(c1ccccc1CN1CCc2c(F)ccc(F)c2C1=O)S(=O)(=O)C(F)(F)F [Compound 3-132]
- herbicidal efficacy (degree (%) of suppression of growth of terrestrial part) (Ammannia multiflora (AM); dose 16 g a.i./ha): ≥ 80%
- herbicidal efficacy (degree (%) of suppression of growth of terrestrial part) [3]: ≥ 80%

SMILES: O=C1c2ccc(Cl)cc2CCN1Cc1ccccc1N(C(=O)C1CC1)S(=O)(=O)C(F)(F)F [Compound 3-106]
- herbicidal efficacy (degree (%) of suppression of growth of terrestrial part) (Ammannia multiflora (AM); dose 63 g a.i./ha): ≥ 80%
- herbicidal efficacy (degree (%) of suppression of growth of terrestrial part) ([1]; dose 125 g a.i./ha): ≥ 80%
- herbicidal efficacy (degree (%) of suppression of growth of terrestrial part) ([2]; dose 250 g a.i./ha): ≥ 80%

SMILES: O=C1Cc2ccc(Cl)cc2N1Cc1ccccc1NS(=O)(=O)C(F)(F)F [Compound 8-5]
- herbicidal efficacy (degree (%) of suppression of growth of terrestrial part) (Ammannia multiflora (AM); dose 500 g a.i./ha): ≥ 80%
- herbicidal efficacy (degree (%) of suppression of growth of terrestrial part) ([1]; dose 500 g a.i./ha): ≥ 80%
- herbicidal efficacy (degree (%) of suppression of growth of terrestrial part) ([2]; dose 1000 g a.i./ha): ≥ 80%

SMILES: CC1(C)CN(Cc2ccccc2NS(=O)(=O)C(F)(F)F)C(=O)c2c(F)ccc(F)c21 [Compound 7-10]
- herbicidal efficacy (degree (%) of suppression of growth of terrestrial part) (Ammannia multiflora (AM); dose 31 g a.i./ha): ≥ 80%
- herbicidal efficacy (degree (%) of suppression of growth of terrestrial part) ([1]; dose 63 g a.i./ha): ≥ 80%
- herbicidal efficacy (degree (%) of suppression of growth of terrestrial part) ([2]; dose 125 g a.i./ha): ≥ 80%

SMILES: O=C1c2ccccc2CCN1Cc1ccccc1NS(=O)(=O)C(F)(F)F [Compound 3-1]
- herbicidal efficacy (degree (%) of suppression of growth of terrestrial part) (Ammannia multiflora (AM); dose 31 g a.i./ha): ≥ 80%
- herbicidal efficacy (degree (%) of suppression of growth of terrestrial part) ([1]; dose 125 g a.i./ha): ≥ 80%
- herbicidal efficacy (degree (%) of suppression of growth of terrestrial part) ([2]; dose 250 g a.i./ha): ≥ 80%

SMILES: COc1cccc2c1CCN(Cc1ccccc1NS(=O)(=O)C(F)(F)F)C2=O [Compound 3-46]
- herbicidal efficacy (degree (%) of suppression of growth of terrestrial part) (Ammannia multiflora (AM); dose 31 g a.i./ha): ≥ 80%
- herbicidal efficacy (degree (%) of suppression of growth of terrestrial part) ([1]; dose 125 g a.i./ha): ≥ 80%
- herbicidal efficacy (degree (%) of suppression of growth of terrestrial part) ([2]; dose 250 g a.i./ha): ≥ 80%

SMILES: O=C1c2c(F)ccc(F)c2CCN1Cc1ccccc1N(C(=O)CC1CC1)S(=O)(=O)C(F)(F)F [Compound 3-128]
- herbicidal efficacy (degree (%) of suppression of growth of terrestrial part) (Ammannia multiflora (AM); dose 16 g a.i./ha): ≥ 80%
- herbicidal efficacy (degree (%) of suppression of growth of terrestrial part) ([1]; dose 63 g a.i./ha): ≥ 80%
- herbicidal efficacy (degree (%) of suppression of growth of terrestrial part) ([2]; dose 500 g a.i./ha): ≥ 80%

SMILES: CCOC(=O)N(c1ccccc1CN1C(=O)c2c(F)cccc21)S(=O)(=O)C(F)(F)F [Compound 1-9]
- herbicidal efficacy (degree (%) of suppression of growth of terrestrial part) (Ammannia multiflora (AM); dose 125 g a.i./ha): ≥ 80%
- herbicidal efficacy (degree (%) of suppression of growth of terrestrial part) ([1]; dose 500 g a.i./ha): ≥ 80%
- herbicidal efficacy (degree (%) of suppression of growth of terrestrial part) ([2]; dose 125 g a.i./ha): ≥ 80%

SMILES: O=C1c2ccc(F)cc2N1Cc1ccccc1NS(=O)(=O)C(F)(F)F [Compound 1-4]
- herbicidal efficacy (degree (%) of suppression of growth of terrestrial part) (Ammannia multiflora (AM); dose 125 g a.i./ha): ≥ 80%
- herbicidal efficacy (degree (%) of suppression of growth of terrestrial part) ([1]; dose 250 g a.i./ha): ≥ 80%
- herbicidal efficacy (degree (%) of suppression of growth of terrestrial part) ([2]; dose 250 g a.i./ha): ≥ 80%
